According to PubChem BioAssay (NCI):
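The compound was tested at five concentrations on cells cultured in 96-well plates, with a 48-hour exposure period. GI50 marks 50% less growth. TGI: concentration producing complete growth inhibition.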

Tested on: NCI-H322M lung
Experiment: growth of human tumour cells (NCI), 48 h

Structure (SMILES)	GI50 [nM]	TGI [nM]
CCN(CC)S(=O)(=O)c1ccc(-c2nc(C(Cl)Cl)nc3cc(-c4ccc(F)cc4)nn23)cc1	2760	10500
CCCCCCNC(=O)Oc1ccc(/C(=C(/C)c2ccc(Cl)cc2)c2ccc(OCCN3CCCC3)cc2)cc1	2480	9020
COc1ccc(C(C)=C(c2ccc(OCCN(C)C)cc2)c2ccc(OCCN(C)C)cc2)cc1	1970	5490
CCN(CC)c1ccc2c(c1)Oc1nc(N)c(C#N)c(N)c1C2Sc1ccc(F)cc1 (stereo not given)	1610	2970
FC(F)(F)c1cc(Br)cc(-c2cc(-c3ccc4c(c3)OCCO4)[nH]n2)c1	620	> 100000
